Measurements as given in PubChem BioAssay (NCATS).
Several values for one entry are separate records, joined by “and”; a condition that tells them apart may be missing. Equal values may be shown once. Inconclusive results, whose numbers are uncertain, are shown with a selection of clear calls. For some of these results: No potency is given beside an inconclusive call; the fits are too rough. Activity calls are given as the source filed them. Unless noted, calls come from the whole dose curve; as a rule, active = well fitted curve in the direction sought with a large enough effect; inconclusive = small, poorly fitted or top-dose-only effect, or another doubt; inactive = no such curve, though single readings can be large; an effect the other way counts as inactive or inconclusive.

Experiments:
[1] = molecular target: Calcium and integrin-binding protein 1 (Homo sapiens) (UniProt Q99828); assay: Primary qHTS for Identification of Calcium Integrin Binding Protein 1 (CIB1) Competitor (AID 1508620); note: potency is the fitted concentration of half-maximal effect
In short: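 CIB1-GST (1 uM final) and compound incubated 15 min at room temperature before adding FITC-alphaIIb peptide tracer (100 nM final). Competition for binding read by fluorescence polarization (ex 480, em 540) after another 15 min at room temperature.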

[2] = NFAT Signaling Pathway (AID 444; active = well fitted curve in either direction with a large enough effect, not every such curve was filed as active; inconclusive = small, poorly fitted or top-dose-only effect, or another doubt;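 note: carbachol stimulus at about its EC50 of 1 µM final; % is set by controls: 0 for no effect and ±100 for the full control effect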); settings: Jurkat NFAT-bla M1, carbachol, beta-lactamase ratio, 5 h; at 7.69 µM (top of the series) unless noted
In short: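 Read-out: CCF4 FRET ratio (460 nm/530 nm) after 1 h RT dye loading, used for %activity and AC50 from titration series. Cells: Jurkat NFAT-β-lactamase/M1 line, treated with compound plus 1 uM carbachol for 5 h, 37 °C.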

[3] = molecular target: 3',5'-cyclic-AMP phosphodiesterase 4B (Homo sapiens) (UniProt Q07343); assay: qHTS Assay for Inhibitors of PDE-IV (AID 607; active = well fitted activation curve with a large enough effect in the main read-out, with a control signal flat, not every such curve was filed as active; inconclusive = small, poorly fitted or top-dose-only effect, or effect the other way, or a change in a side signal; note: potency is the fitted concentration of half-maximal effect); settings: HEK293 ACTOne CNG channel cells, membrane potential fluorescence; activation (PDE inhibition): at 22.9 µM (top of the series)
In short: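 Cell-based read-out of cAMP via a modified cyclic nucleotide-gated channel and membrane potential dye (535/590 nm) in HEK293 cells expressing PDE4 endogenously. Compounds tested up to 22.9 uM final; 100 uM RO 20-1724 reference.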

[4] = qHTS Assay for Lipid Storage Modulators (AID 1519; calls by dose curve; note: % is set by controls: 0 for no effect and ±100 for the full control effect); settings: Drosophila S3 cells, BODIPY lipid droplet/cell ratio, laser cytometry, cells loaded with oleic acid; activity change, negative = inhibition: at 57.5 µM (top of the series) unless noted
In short: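 Cells seeded at 5,000 per well were treated with compounds over a concentration series and loaded with oleic acid (400 uM, as added). Lipid droplet fluorescence (488 nm excitation, 500-530 nm channel) was read by laser-scanning cytometry and normalized to 20 uM Triacsin C.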

[5] = Counterscreen for APE1 Inhibitors: Fluorescent Dye Displacement Validation Assay (AID 1707);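 note: plate controls were ThO with dsDNA and no compound for no effect and ThO without dsDNA for full effect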
In short: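 Compounds are scored by their ability to displace Thiazole Orange (250 nM) from a 50 nM TAMRA-tagged duplex bearing a tetrahydrofuran abasic site. Buffer is 50 mM Tris-HCl pH7.5, 50mM NaCl, 2 mM MgCl2, 0.01% Tween-20.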

[6] = molecular target: Endonuclease 4 (Escherichia coli (strain K12)) (UniProt P0A6C1); assay: Counterscreen for APE1 Inhibitors: qHTS Validation Assay for Inhibitors of Endonuclease IV (AID 1708); note: % is set by controls: 0 for no effect and ±100 for the full control effect
In short: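 qHTS concentration-response format; LOPAC1280 tested under APE1-screen conditions. 2 nM enzyme, 15 min compound preincubation at RT, then 50 nM TAMRA/BHQ-2 abasic substrate; kinetic fluorescence read, three reads at 60 s intervals.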

[7] = qHTS for differential inhibitors of proliferation of Plasmodium falciparum line GB4 (AID 1816); settings: Potency: Plasmodium falciparum GB4 proliferation inhibition;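 note: parasite growth measured after 72 h incubation; 0% = vehicle DMSO and -100% = reference inhibitor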
[8] = qHTS Validation Assay to Find Inhibitors of Chronic Active B-Cell Receptor Signaling (AID 485345; active = well fitted curve in the direction sought with a large enough effect in the main read-out, with a control signal flat, not every such curve was filed as active; inconclusive = small, poorly fitted or top-dose-only effect, or effect the other way, or a change in a side signal; inactive = no such curve, though single readings can be large or run the other way;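 note: 0% = untreated basal cells and 100% = 10 µM MG-132 proteasome inhibitor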); settings: ABC-DLBCL cells, chronic BCR signaling reporter, CBG luciferase; at 46.1 µM (top of the series)
In short: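 Read-out: ratio of filter-corrected green (IkappaBalpha fusion) to red (native) luciferase signal in doxycycline-induced TMD8 cells after 4 h at 37C. Titration spanned 46 uM–3 nM; Data were normalised to basal cells and 10 uM MG-132 wells.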

[9] = Quantitative high throughput screen for delayed death inhibitors of the malarial parasite plastid, 96 hour incubation (AID 488745);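 note: luciferase-expressing P. falciparum in erythrocytes at 2% hematocrit and 0.1% parasitemia; % is set by controls: 0 for no effect and ±100 for the full control effect; nearly all actives have a fitted effect of over 70% in size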
In short: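 Infected erythrocytes were added to compound in Albumax-supplemented RPMI 1640 at 0.1% parasitemia and 2% hematocrit (final), incubated 96 h at 37 C under 5% CO2, then luciferase reagent was added and luminescence measured.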

[10] = qHTS for Inhibitors of ATXN expression: Validation of Cytotoxic Assay (AID 588349); note: % is set by controls: 0 for no effect and ±100 for the full control effect
In short: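 Read-out: ATP-based luminescence (CellTiter Glo) reflecting viability of HEK293 cells after 72 hr incubation at 37 degrees C with a concentration series of each compound.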

[11] = qHTS for Inhibitors of ATXN expression: Validation (AID 588378); note: % is set by controls: 0 for no effect and ±100 for the full control effect; nearly all actives have a fitted effect of over 75% in size
In short: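 HEK293 cells carrying ATXN2-firefly luciferase reporter, treated with compound 24 h at 37 °C. Viability read first by CellTiter-Fluor (405/525 nm), then reporter expression by Bright-Glo luminescence; controls were a known ATXN2 expression inhibitor and a luciferase inhibitor.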

[12] = molecular target: Calcium and integrin-binding protein 1 (Homo sapiens) (UniProt Q99828); assay: Validation qHTS for Identification of Calcium Integrin Binding protein 1 (CIB1) Competitor (AID 1508618); note: % is set by controls: 0 for no effect and ±100 for the full control effect
In short: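 CIB1-GST (1 uM final) incubated 15 min at room temperature with compounds (up to 114 uM), then FITC-labelled alphaIIb peptide (100 nM) added. FP read (Ex 480/Em 540) after 15 min, pH 7.4 buffer containing 5 mM CaCl2.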

[13] = Primary qHTS for small molecule stabilizers of the endoplasmic reticulum resident proteome: Secreted ER Calcium Modulated Protein (SERCaMP) assay (AID 1508630); settings: SH-SY5Y GLuc-SERCaMP (Gaussia luciferase released on ER calcium loss) secretion, thapsigargin, luminescence; activity change, negative = inhibition: at 38.4 µM (top of the series) unless noted; note: potency is the fitted concentration of half-maximal effect
In short: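 GLuc-SERCaMP-expressing SH-SY5Y cells, pretreated 16 h with compound, are challenged with thapsigargin to empty ER calcium stores; after 4 h, coelenterazine is added directly to the medium and luminescence is imaged.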

[14] = molecular target: Glutathione peroxidase 1 (Homo sapiens) (UniProt P07203); assay: Primary qHTS Assay for Inhibitors of Recombinant Selenoprotein Glutathione Peroxidase 1 (GPX1) (AID 1845191); note: nearly all actives have a fitted effect of over 65% in size
In short: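 10 nM GPX1 + cpd, 30 min RT; start w/ 1 mM GSH, 0.5 mM cumene hydroperoxide, 0.5 mM NADPH, 100 nM GR, 0.01% BSA; buffer 50 mM Tris-HCl pH 7.5, 2 mM EDTA, 150 mM NaCl; Fl 340/450, 0 & 15 min.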
Tags give direction and shape of the fitted curve.

Chain of UniProt Q99828 (Q99828 whole entry, looked up): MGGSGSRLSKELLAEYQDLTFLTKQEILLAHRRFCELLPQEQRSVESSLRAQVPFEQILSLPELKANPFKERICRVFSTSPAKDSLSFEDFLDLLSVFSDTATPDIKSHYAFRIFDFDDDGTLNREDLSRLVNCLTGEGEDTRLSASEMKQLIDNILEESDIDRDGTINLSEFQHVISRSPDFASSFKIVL
Chain of UniProt Q07343 (Q07343 whole entry, looked up): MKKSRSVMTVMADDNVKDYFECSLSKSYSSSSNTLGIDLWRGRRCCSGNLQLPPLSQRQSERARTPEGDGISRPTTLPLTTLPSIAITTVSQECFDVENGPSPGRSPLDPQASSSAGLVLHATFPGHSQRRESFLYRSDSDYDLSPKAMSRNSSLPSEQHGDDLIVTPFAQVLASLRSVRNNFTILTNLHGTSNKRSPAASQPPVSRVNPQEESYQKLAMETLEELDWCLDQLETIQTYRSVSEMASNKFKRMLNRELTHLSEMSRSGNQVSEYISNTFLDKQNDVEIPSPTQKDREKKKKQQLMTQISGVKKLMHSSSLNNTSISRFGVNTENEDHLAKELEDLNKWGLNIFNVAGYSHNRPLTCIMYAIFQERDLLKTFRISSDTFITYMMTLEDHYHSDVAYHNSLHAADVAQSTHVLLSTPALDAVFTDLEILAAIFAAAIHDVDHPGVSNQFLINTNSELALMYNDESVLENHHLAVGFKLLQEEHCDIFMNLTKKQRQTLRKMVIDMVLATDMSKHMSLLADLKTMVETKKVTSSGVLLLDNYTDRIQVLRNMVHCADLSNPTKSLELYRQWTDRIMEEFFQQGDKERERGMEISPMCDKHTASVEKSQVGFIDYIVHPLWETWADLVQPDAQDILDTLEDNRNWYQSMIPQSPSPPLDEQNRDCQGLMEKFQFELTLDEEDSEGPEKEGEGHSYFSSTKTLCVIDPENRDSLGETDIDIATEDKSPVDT
Chain of UniProt P07203 (P07203 whole entry, looked up): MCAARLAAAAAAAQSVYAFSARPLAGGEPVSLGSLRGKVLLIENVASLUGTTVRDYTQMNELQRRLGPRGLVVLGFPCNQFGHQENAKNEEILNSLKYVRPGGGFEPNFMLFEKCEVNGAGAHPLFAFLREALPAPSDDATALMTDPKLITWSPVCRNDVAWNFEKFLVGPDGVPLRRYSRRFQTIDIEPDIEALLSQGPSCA

## CC(=O)c1ccc(NC(=O)c2cnn3c(C)cc(C)nc23)cc1
[1]
  Potency: inactive

## Cc1cnc(-c2ccccc2C(C)C)nc1NC(C)c1ccc(-c2cccnc2)cc1 (configuration not stated)
[1]
  Potency: inconclusive [inhibitor, partial curve, poor fit]

## NCCCCN=C(N)N
[2]
  activity change, negative = inhibition: inactive: -4.07% [at 38 µM]
[3]
  Potency: inconclusive [activator, single point]
[4]
  activity change, negative = inhibition: inconclusive: 11.5% and inconclusive: 0.264%
[5]
  Potency: inactive
[6]
  Potency: inactive
[7]
  Potency: inactive
[8]
  activity change: inactive: -0.963%
[9]
  Potency: inactive
[10]
  Potency: inactive
[11]
  Potency: inactive
[12]
  Potency: inactive
[13]
  Potency: inconclusive [inhibitor, full curve, poor fit]
[14]
  Potency: inactive

## O=[S+]([O-])(Nc1nccs1)c1ccc(NCc2cc(Cl)cc(Br)c2O)cc1
[1]
  Potency: inconclusive [inhibitor, full curve, poor fit]

## CCOC(=O)c1[nH]c2c(c1C)C(=S)CC(c1ccco1)C2 (configuration not stated)
[1]
  Potency: inconclusive [inhibitor, partial curve]

## CCCn1c(-c2ccc(F)cc2)nc2c(NCCCN(CC)CC)nc(C)nc21
[1]
  Potency: inactive

## O=C1c2ccccc2C(=O)N1c1cncc2ccccc12
[1]
  Potency: inactive

## O=C1c2ccccc2C(=O)N1c1cccc2ccncc12
[1]
  Potency: inactive

## CC(=O)Nc1sc2c(c1-c1nc3ccccc3s1)CCN(C1COC1)C2
[1]
  Potency: active: 14.1 µM

## NC(=O)C1CCN(c2nc(-c3ccc(Br)cc3)cs2)CC1
[1]
  Potency: inactive
